The record followed here is publication PMC4242493.

The list shows a part of the results. The list includes weakly bound sequences.

The assay addresses MaxL homodimer (UniProt P61244). As to the kind of experiment: universal protein-binding microarray (PBM). The note with it: PBS-based mixture, 10 nM His-tagged protein dimer, 2% milk, 200 ng/uL BSA, 50 ng/uL salmon testes DNA, 0.02% TX-100; detection with Alexa 488 anti-His …; high values mean tight binding; most listed sequences are background and not binding sites; double strand, one strand shown.
Sequence of UniProt P61244 (P61244 whole entry): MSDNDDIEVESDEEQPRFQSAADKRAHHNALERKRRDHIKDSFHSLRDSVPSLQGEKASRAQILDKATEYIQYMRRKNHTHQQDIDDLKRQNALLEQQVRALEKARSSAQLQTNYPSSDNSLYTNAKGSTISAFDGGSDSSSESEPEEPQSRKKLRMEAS
As to CGGCCGAG, the binding signal (normalized occupancy) was 0.0689. Turning to CCCGCCGA, the binding signal (normalized occupancy) is 0.0663. With GCATACTA, the binding signal (normalized occupancy) came to 0.0759.

On to CGCCACCG, for which the binding signal (normalized occupancy) stood at 0.0733. Then TATAACAA, with 0.0788; and CCACCACC, with 0.0813. Then CCTGTGAG, with 0.0762; and CGATAGGC, with 0.0779; and ATTTAGTG, with 0.0751.

Turning to ACCCAATC, the binding signal (normalized occupancy) was determined as 0.0754. Consider AACCATTA, for which the binding signal (normalized occupancy) came out at 0.0784. Then GCCATTAC, with 0.0743; and CAAAGGTC, with 0.0669; and GCGAACGC, with 0.0739. The value for ACGAACGA was 0.0771; that for GCAGCCGC was 0.0651; that for CGAATACA was 0.0824. Then CCTTTTGA, with 0.0749.

As to ACCTTATA, the binding signal (normalized occupancy) came to 0.0748. Then AAAGCAGT, with 0.0719; and CCACACGC, with 0.0953.

Take AAGAGCGG: the binding signal (normalized occupancy) turned out to be 0.0675. With CAGATGCC, the binding signal (normalized occupancy) is 0.0772. In the case of ATTACCTC, the binding signal (normalized occupancy) came out at 0.0797. The value for CGAAGCCA was 0.0704; that for CGTTGCGC was 0.0693.

As for ATCTCCGG, the binding signal (normalized occupancy) came out at 0.0698.

In the case of ATATGTGC, the binding signal (normalized occupancy) is 0.0897.

GGACTGCA: the binding signal (normalized occupancy) stood at 0.0692. On to AGGAAAGG, for which the binding signal (normalized occupancy) is 0.0743. Regarding AAAGTCTA, the binding signal (normalized occupancy) was 0.0703. In the case of AATAAGGG, the binding signal (normalized occupancy) was determined as 0.0746. Then AATCTGTG, with 0.0758; and CACTGCCG, with 0.0673. Then CAGTATAA, with 0.0746; and GCGGACCC, with 0.0723.

As for AACGGACT, the binding signal (normalized occupancy) amounted to 0.0712.

Turning to ATTAATTG, the binding signal (normalized occupancy) turned out to be 0.0748.

For the sequence AGGGCCAT, the binding signal (normalized occupancy) was 0.0744.

Turning to AGGAACCT, the binding signal (normalized occupancy) was 0.0728. Then ATAAGTAC, with 0.0776. The value for GTAGCGCA was 0.0713. As to CAATTAAC, the binding signal (normalized occupancy) worked out at 0.0756.

With CAAGTGGA, the binding signal (normalized occupancy) was 0.0784. Then CAGCAGAA, with 0.0668. The value for CGGAACGC was 0.0739; that for ATCCGGAT was 0.0748.

For TAGTGGAA, the binding signal (normalized occupancy) worked out at 0.073. Then CTTAATAA, with 0.0703. Turning to ACGGAGAC, the binding signal (normalized occupancy) came out at 0.074.

As to GAAGAGAA, the binding signal (normalized occupancy) was 0.0751. Regarding GCCTCGCC, the binding signal (normalized occupancy) was determined as 0.0721.

Regarding CACTCCCC, the binding signal (normalized occupancy) stood at 0.0834. CAGTATAG: the binding signal (normalized occupancy) worked out at 0.0734. AGATCGTA: the binding signal (normalized occupancy) is 0.0753. The value for ACCTGAAA was 0.0726; that for AAAACCAT was 0.0801; that for TCATCAGA was 0.0811. The value for AGCCGAGC was 0.0645.

In the case of CGGCACCA, the binding signal (normalized occupancy) is 0.0775. Take ACCTATAT: the binding signal (normalized occupancy) is 0.0805. For TATCGTAA, the binding signal (normalized occupancy) was determined as 0.079. With GACCCTGC, the binding signal (normalized occupancy) amounted to 0.0706.

Take CACGAGCG: the binding signal (normalized occupancy) worked out at 0.082. In the case of ATCCCAGA, the binding signal (normalized occupancy) was determined as 0.0711. In the case of ACGCTTAG, the binding signal (normalized occupancy) turned out to be 0.0757. As for AGCGGCTA, the binding signal (normalized occupancy) amounted to 0.0685. Then ACTCGATG, with 0.0758; and CGTCGGCC, with 0.0672; and GTGTAGCA, with 0.0826.

For the sequence TATGCGGA, the binding signal (normalized occupancy) stood at 0.0786. Then TACTTGAA, with 0.079; and ATCGGGGC, with 0.0732. The value for ACTAAAGG was 0.0687. With CCGCGCGC, the binding signal (normalized occupancy) was determined as 0.0828.

Regarding CTCAAGTA, the binding signal (normalized occupancy) was determined as 0.0761. On to CTGGCCAC, for which the binding signal (normalized occupancy) was 0.0837. The value for AGTGAGGA was 0.0746; that for AATGGGTA was 0.0788. Turning to AGGATGAA, the binding signal (normalized occupancy) is 0.072. Consider AGTTGACC, for which the binding signal (normalized occupancy) is 0.0726. As to CATAATAG, the binding signal (normalized occupancy) came to 0.0832. CAAGCACC: the binding signal (normalized occupancy) was found to be 0.0723. For ATGCGCCG, the binding signal (normalized occupancy) is 0.0838.

For ATGTTTTA, the binding signal (normalized occupancy) was determined as 0.0906. Then ATCCTGTG, with 0.0775. The value for AAAGCGAC was 0.0673; that for CATCAAGG was 0.0771; that for GGACACTA was 0.0717. The value for GGCGCGTA was 0.0751; that for ACTCAGAA was 0.0698; that for GTGGATCA was 0.0818.

As for TCTCGTAA, the binding signal (normalized occupancy) turned out to be 0.0762. With CCCCCTAA, the binding signal (normalized occupancy) was determined as 0.0764. The value for ATGAACCC was 0.0746; that for GAGCTTTA was 0.0672.

For CAGCAGCG, the binding signal (normalized occupancy) worked out at 0.0702.

In the case of CAACGATG, the binding signal (normalized occupancy) was 0.0773. Then CTCAGCTC, with 0.0665; and CGAATCCG, with 0.0702. CCGTCATA: the binding signal (normalized occupancy) was 0.0781. The value for CTCATTTC was 0.0748; that for AGAATCGA was 0.0701. Then CCTAAGTA, with 0.0775; and ATGACGGG, with 0.0805. As for GGCGTCAC, the binding signal (normalized occupancy) came out at 0.0774. Then CACCCTAA, with 0.0817.

With GCTTTGGA, the binding signal (normalized occupancy) is 0.0788. For ACATTTGC, the binding signal (normalized occupancy) was 0.0828.
